# Measured values reported in the BET-seq Pho4 binding data (Le et al. 2018).
# The other results are listed elsewhere or left out. The energies were worked out here from pooled read counts, against the library average; single values are noisy.
# Target: T1, Pho4 (S. cerevisiae) (UniProt P07270)
# T1 sequence: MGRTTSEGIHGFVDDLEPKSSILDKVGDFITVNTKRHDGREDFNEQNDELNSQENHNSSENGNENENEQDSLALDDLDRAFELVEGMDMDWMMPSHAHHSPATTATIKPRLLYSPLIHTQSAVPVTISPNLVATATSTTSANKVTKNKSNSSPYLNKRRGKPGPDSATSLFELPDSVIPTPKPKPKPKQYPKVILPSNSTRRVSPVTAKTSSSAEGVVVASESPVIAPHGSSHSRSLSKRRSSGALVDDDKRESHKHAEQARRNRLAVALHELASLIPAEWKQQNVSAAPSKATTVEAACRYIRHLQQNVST
# Assay: relative binding free energy (BET-seq); higher = weaker binding
# Details: reference: library average
row,Sequence,relative binding free energy [kcal/mol]
1,TATAGCACGTGGGTGA,-0.29
2,GGGGGCACGTGGTTTG,-0.11
3,ATTACCACGTGGTTTT,-0.04
4,GTTAACACGTGTAGGT,0.09
5,CGGTACACGTGCGGGT,-0.19
6,AGAGTCACGTGAGGCG,0.35
7,TCGCGCACGTGGGTGA,-0.24
8,ATAGGCACGTGGCTGG,-0.21
9,GGTGTCACGTGCACGT,0.06
10,GTCGCCACGTGGGGGT,-0.25
11,ATGTTCACGTGGCTAA,0.21
12,GAGGACACGTGGATGG,0.02
13,TGTTTCACGTGCGTAA,0.38
14,GGAGGCACGTGTTATG,0.02
15,TGGGGCACGTGAGTTA,0.13
16,AAGAACACGTGATGTG,0.17
17,AGATGCACGTGGGTGC,-0.15
18,TCGATCACGTGGTGTT,0.07
19,GGAATCACGTGATGGG,0.27
20,ATAAGCACGTGATTGA,-0.03
21,ATGTTCACGTGTTGTC,0.3
22,CTGGGCACGTGAGTTT,0.2
23,GTTCTCACGTGGTGGT,0.13
24,AAAGTCACGTGAGTTT,0.26
25,GGGGGCACGTGTAAGC,0.01
26,GGTGCCACGTGGGGGC,-0.25

row,Sequence,relative binding free energy [kcal/mol]
1,GGGGACACGTGTAGTG,0.1
2,GCCTGCACGTGGGTTG,-0.17
3,TTGCCCACGTGGGTTT,-0.08
4,GGAGTCACGTGTAAAT,0.27
5,CAGCACACGTGGTGGG,0.06
6,TGAATCACGTGAGTGA,0.33
7,AGAGTCACGTGGCCGG,0.01
8,CTGTTCACGTGCTTGG,0.15
9,GTCGGCACGTGGGAAG,-0.1
10,GGTGCCACGTGTCGTG,-0.02
11,CGTTGCACGTGGGGGG,-0.15
12,GATAGCACGTGTGAGT,0.02
13,AGGGACACGTGTGTGT,0.04
14,GGTTTCACGTGCAATG,0.38
15,AGTCACACGTGAGAGG,0.3
16,TGGAGCACGTGTTATT,-0.07
17,TGGTGCACGTGGCGAA,-0.15
18,GGATGCACGTGCCGGG,-0.09
19,TTCATCACGTGGTGTT,0.1
20,TGTTACACGTGGGTCG,0
21,TCGGTCACGTGAGGGC,0.35
22,TACAGCACGTGGTGTT,-0.22
23,CATTTCACGTGGGTAT,0.2
24,TGTTACACGTGTGAGC,0.23
25,GGTAGCACGTGTTTTT,0.06
26,TCTATCACGTGTGGGT,0.18

row,Sequence,relative binding free energy [kcal/mol]
1,CTGGTCACGTGGGGCT,0.07
2,ATAGGCACGTGAATAG,0.05
3,TGTATCACGTGAGGGT,0.26
4,TCGTGCACGTGGGGGA,-0.18
5,CGGTGCACGTGGCGGT,0
6,GATGGCACGTGATTTA,0.09
7,GATGGCACGTGGGCTA,-0.07
8,TGTTCCACGTGAAGGG,0.29
9,GGGGACACGTGTGTCT,0.03
10,TTGAGCACGTGGGTTG,-0.17
11,TTATCCACGTGGTGGC,0.01
12,AGGGGCACGTGGGCAT,-0.26
13,ATTGACACGTGTGATA,0.02
14,GTTCTCACGTGTTTTA,0.39
15,GGTGTCACGTGGTTTG,0.18
16,CTGTACACGTGGAGTT,0.08
17,GAGGACACGTGATTGT,0.15
18,GATGGCACGTGAGGTT,0.27
19,ATGTGCACGTGTTAAG,0.03
20,ATTTGCACGTGTTCCT,0.08
21,TGCGGCACGTGGATGC,-0.07
22,GTTCGCACGTGTAGTG,-0.03
23,GGTAACACGTGCGGTC,0.11
24,GGAGGCACGTGAGATT,0.15
25,TTATACACGTGGTTGT,0.01
26,TGGCTCACGTGGAGAA,0.16

row,Sequence,relative binding free energy [kcal/mol]
1,GTTTGCACGTGGTTGT,0.11
2,GTTTCCACGTGGAATG,0.28
3,GCGTACACGTGATTTG,0.32
4,TATATCACGTGTGTAC,0.13
5,TGTAGCACGTGAGTTT,0.16
6,GTTTACACGTGGCTGG,0.09
7,AAGCGCACGTGATTGG,0.02
8,TTCAACACGTGGTGGG,-0.03
9,TGCGGCACGTGTGATT,0.02
10,TAGATCACGTGGGTTT,0
11,TTAGGCACGTGTCGGC,-0.14
12,TGGTTCACGTGGTGTA,0.26
13,GATGCCACGTGTGGGC,0.1
14,AATGTCACGTGAGTAT,0.23
15,GGCAACACGTGTGGGA,0.17
16,GTCTACACGTGTGGTG,0.26
17,TTTAGCACGTGGTCAA,-0.17
18,ATGTACACGTGGGAGC,-0.04
19,ATTAACACGTGCTGGT,-0.13
20,TTTGGCACGTGTTTGT,-0.03
21,GGAGTCACGTGCGGAA,0.15
22,GTCGTCACGTGGGTCT,-0.02
23,TATGCCACGTGGATGG,-0.12
24,TCTGGCACGTGTCTGT,-0.03
25,AATTTCACGTGCTTTG,0.18
26,TGCTGCACGTGGGCAA,-0.18

row,Sequence,relative binding free energy [kcal/mol]
1,AATCTCACGTGTTTGG,0.21
2,AGTAACACGTGGTTAA,-0.06
3,TTCGTCACGTGAGGTT,0.36
4,ATCAGCACGTGGAAGG,0.01
5,TGTGGCACGTGGTGCA,-0.18
6,TCTTTCACGTGGGTTC,0.29
7,GGGACCACGTGATTGG,0.06
8,GGAGGCACGTGAAGAT,0.17
9,TGAATCACGTGCGGTA,0.15
10,TAAGCCACGTGTTTGG,-0.12
11,GATTGCACGTGTATTG,-0.06
12,TGGAACACGTGTAAGT,0.09
13,GTAAACACGTGTTATT,0.03
14,TGTTGCACGTGGGTAG,-0.15
15,TGCTACACGTGTGTAT,0.16
16,TGTAACACGTGTAGGC,-0.02
17,TGGGTCACGTGTATTC,-0.01
18,TTTTACACGTGGATGA,0.1
19,AGGGTCACGTGTAGCG,0.12
20,ATGCACACGTGGGGGT,-0.03
21,GGTGGCACGTGGAGAA,-0.15
22,GGTTTCACGTGTACTA,0.37
23,TAGTTCACGTGTTCGT,0.34
24,GGCTTCACGTGGATGT,0.27
25,TGGTACACGTGGTGCC,-0.09
26,TGGTGCACGTGAATTC,0.13

row,Sequence,relative binding free energy [kcal/mol]
1,CTTTTCACGTGCGTGC,0.35
2,AGTTGCACGTGAATAG,0.17
3,GGGATCACGTGAGGTA,0.35
4,CATGTCACGTGGTAGG,-0.01
5,CTGTGCACGTGGTCAG,-0.12
6,CGGGCCACGTGGTGAG,-0.19
7,TTAGTCACGTGGTTCC,0.11
8,GGAGGCACGTGAGTGG,0.16
9,CTGCGCACGTGTGGTT,-0.08
10,TAATACACGTGATGTG,0.18
11,AGGCTCACGTGCGGTG,0.15
12,AAGGGCACGTGAGACG,0.18
13,AGGTGCACGTGTAAAA,0.15
14,GGGTGCACGTGAATCT,0.36
15,GGCTTCACGTGGTCTG,0.1
16,TTTCACACGTGTTGTT,0.11
17,TGTGTCACGTGTTTGT,0.11
18,ATGATCACGTGTTTTT,0.23
19,AAGGACACGTGTGTGC,-0.02
20,TTTGCCACGTGCCTGG,0
21,ATGGCCACGTGTAAGG,0.13
22,GAGTGCACGTGTAAAG,0.24
23,GGGTACACGTGTAGAA,0.14
24,CTCTGCACGTGTGGGT,0.06
25,TGGTGCACGTGCTTTA,-0.03
26,TGTATCACGTGATCGG,0.2

row,Sequence,relative binding free energy [kcal/mol]
1,TTAAACACGTGGGGAT,-0.07
2,CTGCGCACGTGATGTG,-0.04
3,AGCTTCACGTGCGTGG,0.25
4,TAGGTCACGTGGCATT,0.02
5,CAGGTCACGTGTGAGT,0.12
6,TTTGGCACGTGATGCT,-0.05
7,AGTGACACGTGTTCGT,0.01
8,ATGATCACGTGAGGTT,0.31
9,GGTGCCACGTGTATGT,-0.08
10,ATAGTCACGTGCATTG,0.04
11,ATTTGCACGTGAATTG,0.28
12,GGAGACACGTGGTCGC,0.31
13,GGTAGCACGTGCCTTG,-0.05
14,CGTATCACGTGGTATA,0.01
15,TATTACACGTGTCTTT,0.16
16,TTAGACACGTGTAGCG,0.16
17,TTTTCCACGTGGCGTT,-0.02
18,TTGGTCACGTGGGTAA,0.05
19,CTTGTCACGTGTTAGA,-0.01
20,AGGTGCACGTGGACTA,0
21,TTGTCCACGTGTCATT,0.13
22,ATGGCCACGTGGGGGC,-0.22
23,GCTATCACGTGTTGTT,0.13
24,TTAGACACGTGTCGTA,0.04
25,ATTTGCACGTGACGGT,0.08
26,ATTAACACGTGGGGAT,-0.17

row,Sequence,relative binding free energy [kcal/mol]
1,TGGCTCACGTGGTTTT,0.18
2,TCTGTCACGTGTGATG,0.27
3,GAGCGCACGTGGTTTA,-0.07
4,AATATCACGTGCTTTT,0.14
5,AAGGACACGTGTTGGA,0.2
6,ATTAGCACGTGTAGAG,0.12
7,GGAGACACGTGAGGGT,0.2
8,GGTATCACGTGCAGGT,0.21
9,TGTTACACGTGGAGGG,0.04
10,TAGATCACGTGAGAGG,0.35
11,CCGTTCACGTGGGTTA,0.36
12,GGGCTCACGTGTGAGA,0.54
13,TGGTACACGTGGTATT,0.07
14,TTTGCCACGTGGGGAT,-0.24
15,TGATTCACGTGCGGTG,0.2
16,GACTTCACGTGTTTGT,0.14
17,TGTTTCACGTGTACGT,0.17
18,GCTGTCACGTGGTGTT,0.06
19,TTGCTCACGTGAGTTA,0.37
20,TGAAGCACGTGAGAGG,0.08
21,GGAGTCACGTGTTCAT,0.18
22,AGGGTCACGTGCTCGT,0.07
23,ATTGACACGTGGTGTT,-0.01
24,TTTTGCACGTGGAGGT,0.04
25,GGCGTCACGTGTTAGA,0.24
26,GTTGACACGTGTTAGT,0.07

row,Sequence,relative binding free energy [kcal/mol]
1,AAGAACACGTGCGGGT,0.01
2,GGACGCACGTGTTTTG,0.01
3,TTTAGCACGTGGAGTT,-0.02
4,GATTTCACGTGGGCAG,0.23
5,AGAAGCACGTGCGGTA,-0.02
6,ATAAGCACGTGGGTGT,-0.33
7,TAAGGCACGTGTAGAG,-0.08
8,TGTGGCACGTGTTACA,-0.1
9,TTATTCACGTGCGTCG,0.13
10,AGTTTCACGTGGTATA,0.2
11,TTCAACACGTGGGGGG,-0.06
12,TTTCACACGTGAGAGG,0.34
13,GTTGACACGTGACTGG,0.17
14,AGTGCCACGTGGAAGG,-0.09
15,TGGTTCACGTGTGGAG,0.3
16,TCGAGCACGTGGTGAG,-0.16
17,GGTACCACGTGGTGTG,-0.19
18,TATAGCACGTGAGGTT,0.28
19,CAAGGCACGTGAGGGG,0.18
20,TTAATCACGTGTTCTG,0.08
21,CTTGGCACGTGTGTAT,-0.04
22,GGAATCACGTGGGTGC,0.11
